{"source": "the BET-seq Pho4 binding data (Le et al. 2018)", "note": "The list shows a part of the results. These are noisy estimates, calculated here from bound and input reads.", "data": [{"target": "T1, Pho4 (S. cerevisiae) (UniProt P07270)", "T1 sequence": "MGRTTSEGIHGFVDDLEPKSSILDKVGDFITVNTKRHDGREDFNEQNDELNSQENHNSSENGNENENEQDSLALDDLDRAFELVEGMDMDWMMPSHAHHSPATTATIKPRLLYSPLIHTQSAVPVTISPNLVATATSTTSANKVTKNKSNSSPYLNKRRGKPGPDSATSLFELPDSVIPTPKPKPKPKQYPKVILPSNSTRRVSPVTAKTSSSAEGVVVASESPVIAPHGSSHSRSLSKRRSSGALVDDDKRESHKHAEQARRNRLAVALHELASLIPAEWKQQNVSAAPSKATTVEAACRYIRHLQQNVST", "assay": "relative binding free energy (BET-seq); higher = weaker binding", "conditions": "reference: library average", "units": {"relative binding free energy": "kcal/mol"}, "values": [{"sequence": "TGACACACGTGTTTGG", "relative binding free energy": -0.07}, {"sequence": "GGTAGCACGTGTCTGA", "relative binding free energy": 0}, {"sequence": "AGTCACACGTGGGGTT", "relative binding free energy": -0.06}, {"sequence": "CGTGTCACGTGCTGGG", "relative binding free energy": 0.13}, {"sequence": "AGGGTCACGTGTGACG", "relative binding free energy": 0.04}, {"sequence": "CTGGTCACGTGTGAGC", "relative binding free energy": 0.16}, {"sequence": "TGGCACACGTGAGTGA", "relative binding free energy": 0.33}, {"sequence": "ATTGACACGTGTTGGC", "relative binding free energy": 0.02}, {"sequence": "ATAAGCACGTGAGGGC", "relative binding free energy": 0.21}, {"sequence": "GCATGCACGTGGGTCT", "relative binding free energy": -0.05}, {"sequence": "GGGGACACGTGGAACG", "relative binding free energy": 0.13}, {"sequence": "CAGTTCACGTGGCTGT", "relative binding free energy": 0.21}, {"sequence": "GTTACCACGTGTTTGT", "relative binding free energy": -0.07}, {"sequence": "GGAATCACGTGTTATT", "relative binding free energy": 0.26}, {"sequence": "AGGATCACGTGATGTG", "relative binding free energy": 0.2}, {"sequence": "CCGGGCACGTGTTGTT", "relative binding free energy": -0.17}, {"sequence": "TGGGTCACGTGAGTTA", "relative binding free energy": 0.27}, {"sequence": "CTGCGCACGTGGATGG", "relative binding free energy": -0.15}, {"sequence": "TTCAACACGTGAGGTG", "relative binding free energy": 0.23}, {"sequence": "TCGGGCACGTGCATAG", "relative binding free energy": -0.05}, {"sequence": "AGTGCCACGTGTGGAT", "relative binding free energy": -0.06}, {"sequence": "TTAGACACGTGTTATG", "relative binding free energy": 0.02}, {"sequence": "TACTGCACGTGGGGGT", "relative binding free energy": -0.23}, {"sequence": "TTCATCACGTGTCTGT", "relative binding free energy": 0.04}, {"sequence": "AATAGCACGTGGAGGA", "relative binding free energy": -0.14}, {"sequence": "GAGTACACGTGGGGGA", "relative binding free energy": 0.04}, {"sequence": "CTAGTCACGTGGGCTG", "relative binding free energy": -0.07}, {"sequence": "GTCTGCACGTGTTTGA", "relative binding free energy": 0}, {"sequence": "TTGAGCACGTGAAGGG", "relative binding free energy": 0.21}, {"sequence": "GTGATCACGTGGTTTC", "relative binding free energy": 0.04}, {"sequence": "GTGCTCACGTGGTGGG", "relative binding free energy": 0.22}, {"sequence": "GGTGACACGTGAGTCT", "relative binding free energy": 0.24}, {"sequence": "TAGTTCACGTGTATCG", "relative binding free energy": 0.35}, {"sequence": "TTTTCCACGTGTTCTG", "relative binding free energy": 0.17}, {"sequence": "TGCTACACGTGTTTTG", "relative binding free energy": -0.01}, {"sequence": "TGGGACACGTGCGGGA", "relative binding free energy": 0.03}, {"sequence": "AGGGCCACGTGTTTGA", "relative binding free energy": 0.01}, {"sequence": "TATGCCACGTGGTTTG", "relative binding free energy": -0.14}, {"sequence": "GACTGCACGTGTTTTG", "relative binding free energy": 0.04}, {"sequence": "TAGTTCACGTGGCGGC", "relative binding free energy": 0.24}, {"sequence": "TTGGTCACGTGGTATA", "relative binding free energy": 0.1}, {"sequence": "ATTTACACGTGTCAAG", "relative binding free energy": 0.18}, {"sequence": "TGGTCCACGTGCAGGG", "relative binding free energy": -0.14}, {"sequence": "AAAGGCACGTGCGTGT", "relative binding free energy": -0.18}, {"sequence": "GCGGGCACGTGAGGTT", "relative binding free energy": 0.22}, {"sequence": "TTATCCACGTGAGGTT", "relative binding free energy": 0.33}, {"sequence": "AAGGGCACGTGTGACG", "relative binding free energy": 0}, {"sequence": "TGGGTCACGTGTACAG", "relative binding free energy": -0.01}, {"sequence": "ATTTTCACGTGGTCTG", "relative binding free energy": 0.12}, {"sequence": "TCTTGCACGTGTGTAA", "relative binding free energy": 0}, {"sequence": "CATGACACGTGAGGTT", "relative binding free energy": 0.26}, {"sequence": "AAGGTCACGTGTATGC", "relative binding free energy": 0.26}, {"sequence": "CTGAACACGTGTTGGG", "relative binding free energy": 0.06}, {"sequence": "GGGGGCACGTGTTGCA", "relative binding free energy": -0.01}, {"sequence": "TTAGGCACGTGTGCAA", "relative binding free energy": -0.15}, {"sequence": "TGTGGCACGTGTGCCT", "relative binding free energy": -0.08}, {"sequence": "CAGGGCACGTGGGGCG", "relative binding free energy": -0.23}, {"sequence": "CCTTGCACGTGAGGGG", "relative binding free energy": 0.19}, {"sequence": "GTTGGCACGTGGCGTT", "relative binding free energy": -0.16}, {"sequence": "TCGGTCACGTGATCGG", "relative binding free energy": 0.28}, {"sequence": "TTTGGCACGTGAGATA", "relative binding free energy": 0.16}, {"sequence": "GGACGCACGTGTGGTG", "relative binding free energy": -0.12}, {"sequence": "TCAGGCACGTGATGGT", "relative binding free energy": 0.05}, {"sequence": "GAGGCCACGTGTGGGT", "relative binding free energy": 0.09}, {"sequence": "GGGTTCACGTGTGTAC", "relative binding free energy": 0.42}, {"sequence": "TTGGTCACGTGTGACA", "relative binding free energy": 0.19}, {"sequence": "ATGGACACGTGGGTTC", "relative binding free energy": -0.04}, {"sequence": "TGGTCCACGTGATTTA", "relative binding free energy": 0.26}, {"sequence": "GGGCGCACGTGTCGGT", "relative binding free energy": 0.02}, {"sequence": "TGTGACACGTGTATAT", "relative binding free energy": -0.08}, {"sequence": "GTGATCACGTGTAGCG", "relative binding free energy": 0.27}, {"sequence": "AAGATCACGTGGGTGG", "relative binding free energy": -0.05}, {"sequence": "AGGGTCACGTGTCTCG", "relative binding free energy": 0.21}, {"sequence": "CTGTTCACGTGTTAGA", "relative binding free energy": 0.26}, {"sequence": "GATTTCACGTGTGCTA", "relative binding free energy": 0.39}, {"sequence": "TTTAGCACGTGTTTTC", "relative binding free energy": -0.05}, {"sequence": "TTGTCCACGTGGGTAA", "relative binding free energy": 0.01}, {"sequence": "AGGTGCACGTGGACGT", "relative binding free energy": -0.07}, {"sequence": "TTGCTCACGTGGGGTA", "relative binding free energy": -0.02}, {"sequence": "TGAGACACGTGTTAGT", "relative binding free energy": -0.04}, {"sequence": "CATGACACGTGTGGCT", "relative binding free energy": 0.17}, {"sequence": "GGTAACACGTGGTGTC", "relative binding free energy": -0.03}, {"sequence": "CGTGTCACGTGTGTAG", "relative binding free energy": 0.02}, {"sequence": "TATATCACGTGTTTGG", "relative binding free energy": 0.08}, {"sequence": "GTGGGCACGTGATATC", "relative binding free energy": 0.08}, {"sequence": "ATATACACGTGGGTAA", "relative binding free energy": -0.15}, {"sequence": "GTTTGCACGTGTCGTG", "relative binding free energy": 0.03}, {"sequence": "TGAGGCACGTGTTGTG", "relative binding free energy": -0.08}, {"sequence": "ATGCGCACGTGAGTGT", "relative binding free energy": -0.01}, {"sequence": "AAGTTCACGTGTGTTT", "relative binding free energy": 0.25}, {"sequence": "GCGGGCACGTGTTAGT", "relative binding free energy": -0.19}, {"sequence": "ATAGACACGTGAATGG", "relative binding free energy": 0.38}, {"sequence": "AAAGTCACGTGAGTGT", "relative binding free energy": 0.26}, {"sequence": "ATGGTCACGTGTAGAT", "relative binding free energy": 0.23}, {"sequence": "GTAAACACGTGGTAAG", "relative binding free energy": 0.13}, {"sequence": "ATTCCCACGTGGTGGT", "relative binding free energy": -0.19}, {"sequence": "GTGGACACGTGGAGAT", "relative binding free energy": 0.13}, {"sequence": "TTCGTCACGTGATAGG", "relative binding free energy": 0.15}, {"sequence": "AGGCTCACGTGTAGTG", "relative binding free energy": 0.19}, {"sequence": "ACGGGCACGTGGGAGC", "relative binding free energy": -0.19}, {"sequence": "GAGTTCACGTGATAAG", "relative binding free energy": 0.42}, {"sequence": "TGTTGCACGTGTATGC", "relative binding free energy": 0.07}, {"sequence": "GAGGCCACGTGGGAAG", "relative binding free energy": 0.04}, {"sequence": "TATCGCACGTGGGGAG", "relative binding free energy": -0.24}, {"sequence": "GGTGCCACGTGAAGTT", "relative binding free energy": 0.19}, {"sequence": "GGTGCCACGTGTCAGG", "relative binding free energy": 0.01}, {"sequence": "TGAGGCACGTGGTTTC", "relative binding free energy": -0.11}, {"sequence": "ATTGACACGTGTCTGT", "relative binding free energy": 0.01}, {"sequence": "AGTGTCACGTGCTTCG", "relative binding free energy": 0.06}, {"sequence": "CTCTGCACGTGAGGTT", "relative binding free energy": 0.13}, {"sequence": "TAGGTCACGTGATGTT", "relative binding free energy": 0.15}, {"sequence": "CGTGCCACGTGAGGAG", "relative binding free energy": 0.21}, {"sequence": "ATTCACACGTGGGGGA", "relative binding free energy": -0.14}, {"sequence": "TTTTACACGTGCTTTT", "relative binding free energy": 0.02}, {"sequence": "TTATGCACGTGTACTA", "relative binding free energy": -0.05}, {"sequence": "AATTGCACGTGTTGTA", "relative binding free energy": -0.03}, {"sequence": "TATGCCACGTGTGGTG", "relative binding free energy": -0.08}, {"sequence": "CTATGCACGTGCGTGT", "relative binding free energy": -0.04}, {"sequence": "CATTTCACGTGATGGC", "relative binding free energy": 0.38}, {"sequence": "TTTCGCACGTGGAAGT", "relative binding free energy": 0.15}, {"sequence": "TGTGCCACGTGTTATA", "relative binding free energy": -0.2}, {"sequence": "TTGGACACGTGATGAC", "relative binding free energy": 0.35}, {"sequence": "TTGCTCACGTGGGTGG", "relative binding free energy": 0.15}, {"sequence": "CTTGTCACGTGGTAGA", "relative binding free energy": 0.03}, {"sequence": "CAAAGCACGTGTGTTT", "relative binding free energy": 0.05}, {"sequence": "CTTGACACGTGAGGTT", "relative binding free energy": 0.25}, {"sequence": "TAGGCCACGTGATTGT", "relative binding free energy": 0.08}, {"sequence": "GAAGGCACGTGTCAGT", "relative binding free energy": -0.08}, {"sequence": "AGTCACACGTGTTAGG", "relative binding free energy": 0.09}, {"sequence": "CGTGTCACGTGTTGAA", "relative binding free energy": 0}, {"sequence": "TGGATCACGTGTAAGG", "relative binding free energy": 0.1}, {"sequence": "TGTGGCACGTGACTTG", "relative binding free energy": -0.08}, {"sequence": "GTGAACACGTGTCGGC", "relative binding free energy": 0.27}, {"sequence": "TTTTACACGTGTGTAC", "relative binding free energy": 0.05}, {"sequence": "ATTATCACGTGGCGGA", "relative binding free energy": 0.09}, {"sequence": "TGTGTCACGTGATCCG", "relative binding free energy": 0.14}, {"sequence": "GCATTCACGTGGTGAG", "relative binding free energy": 0.21}, {"sequence": "TGTCTCACGTGAATAA", "relative binding free energy": 0.6}, {"sequence": "AGTGGCACGTGCCGTG", "relative binding free energy": -0.25}, {"sequence": "GTTTGCACGTGCGTCA", "relative binding free energy": -0.04}, {"sequence": "ATTTTCACGTGGGTCC", "relative binding free energy": 0.28}, {"sequence": "GTGGGCACGTGTGAGT", "relative binding free energy": -0.02}, {"sequence": "AACGTCACGTGTTGTG", "relative binding free energy": 0}, {"sequence": "TATGTCACGTGAGATA", "relative binding free energy": 0.28}, {"sequence": "CGTGACACGTGGAAGG", "relative binding free energy": -0.11}, {"sequence": "TGGACCACGTGTTGCG", "relative binding free energy": -0.01}]}]}
